Read counts are not given, so values of variants with three or more changes are uncertain.

The values below come from the RNAGym collection of RNA variant scans (doi:10.1093/nar/gkz1192).

The labels stand for the following.
B1: CPEB3 Ribozyme (parent)
chain: UAACAGGGGGCCACAGCAGAAGCGUUCACGUCGCAGCCCCUGUCAGAUUCUGGUGAAUCUGCGAAUUCUGCUGUAUAUCUC

In the data set the parent is B1. As to the kind of experiment: self-cleavage, relative activity (ratio to wild type); higher = more cleavage; in vitro, sequencing. Put shortly: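 Relative activity compares each variant's cleaved/total read fraction with that of the unmutated ribozyme. To get these fractions, barcoded CPEB3 ribozyme libraries from rounds of error-prone PCR were transcribed with T7 RNA polymerase for 5 hours at 37°C and then given 15 min of DNase I treatment before EDTA was added. The RNAs were reverse transcribed with template switching and sequenced on Illumina, and DNA sequencing linked barcodes to variants. A minimum of 5 reads applied, and three batches were averaged.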
As for G16A C38A C71U U80C, the self-cleavage is 0.07.
As for A15U U74C A75C, the self-cleavage was determined as 1.17.
A15G U26C A57U: the self-cleavage was 0.18.
The value for A15G U58C A64G U80C was 0.27.
In the case of G16A A45G U54A A65G U78C it was 0.13; in that of A15G U54C U60C U69C A77G, 0.22; in that of A15G U43A A47G, 0.64.
The value for A15U C29U C32U A56U A65G was 0.05; that for A15U A20G U78A was 0.39.
Regarding A15U A18U U49A U54A A65U, the self-cleavage amounted to 0.08.
In the case of A15G U54C U60C A64G it was 0.17; in that of A15U U25C A35G C38U U51A A57U, 0.08; in that of A15G U51A U69C U78C, 0.47.
The value for A15U A18U U26G U72C was 0.15; that for G16U A20G U26C G42A U51C A57G was 0.07.
In the case of A15G U41A U54A U60A it was 0.07; in that of A15U A28G A35U, 0.23; in that of A15U U58C U76C A77U, 0.27.
For the variant A15U G30A A45U A47G U60A A77U, the self-cleavage was 0.23.
Regarding A15U A35G U72A, the self-cleavage stood at 1.26.
For A15U U31C G36A C81A, the self-cleavage came out at 0.11.
The value for A15U U48C A56G U72C was 0.16.
In the case of A15U U26C A35U U54A A57G it was 0.06; in that of A15U A28G U72A U78A, 0.44.
The value for A15U U31C A35U U41A A64G A65U was 0.08; that for A15U A18G U80C was 0.19.
With A15U U25C C29G A45G U80A, the self-cleavage amounted to 0.29.
The value for A15G U54C A57G U58C U66C was 0.11; that for A15G U51A U67A was 0.44; that for A15U A20G A35G U51G A64U U66C U69A was 0.19.
G16C U67C A75G U78C: the self-cleavage was determined as 0.06.
In the case of A15U A35G U41C U72A, the self-cleavage was 1.
Consider A15U A20C U41C U51C, for which the self-cleavage came out at 0.25.
On to A15U A56U U69C, for which the self-cleavage turned out to be 0.19.
The value for G16C U25C A28U A47G was 0.06; that for A15G U43C U72C was 0.85.
The value for A15U U26C U41A U54A was 0.18.
The value for A15U U25G A28U was 0.23.
With A15U C17A C50G, the self-cleavage was determined as 0.24.
Take A15G U49C C81U: the self-cleavage was 0.67.
Consider A15U G33A U54A A75G, for which the self-cleavage was found to be 0.15.
The value for A15U C38G U58C U69G was 0.05.
In the case of A15G U31A A35U U41G A57G A75G A77G it was 0.17.
G16U A21G C27U A35U U43C: the self-cleavage was found to be 0.23.
The value for A15G U31C C59A was 0.04.
The value for A15G U54C A65G was 0.46; that for A15U C71U U74A was 0.62.
The value for G16C U51A A56U A75G U78A was 0.07; that for G16A U31A A35G A57G G61A was 0.18.
Take G16C U60G G73C U74C: the self-cleavage stood at 0.14.
Regarding A15G U49C A57G G63U, the self-cleavage came out at 0.16.
In the case of G16A U26A A45G C71U it was 0.49.
In the case of A15U G53C A57G A65G U74C it was 0.39.
The value for A15U A20U U66C was 0.47; that for A15U U41C U48C U72C was 0.6.
G16A U26A C50U U54A U67G: the self-cleavage amounted to 0.07.
The value for A15U G22A U26A A28U C39U A56U U60A was 0.04; that for A15U U49C G55C A65U U67A was 0.14.
Regarding A15U U41A G46C U76C, the self-cleavage was 0.18.
The value for A15U C17U U69C U74C was 0.16.
The value for A15U U31G U43C A56G was 0.11; that for G16U U25A A35U C37A U41A was 0.14.
The value for A15G U31C U49C G55U U67C A75G was 0.07; that for A15U A21G U25C U26C A45G U51G was 0.21; that for G16U U26A A35G U58C was 0.19.
As for A15U A20G A45C A64G U78C, the self-cleavage stood at 0.08.
The value for A15U G63A A64G was 0.08.
In the case of A15U U48A U67C A75U it was 0.11; in that of A15U A20G C37U, 0.23; in that of A15U C17G A21G U25C A47G U69G, 0.05.
The value for A15G U58C U72G was 0.17; that for G16U A56U A75G U80C was 0.16; that for A15U A45C U66C was 0.13.
In the case of A15U C40A U41C U74A, the self-cleavage is 0.28.
In the case of G16A A18U U43C U48C U67C it was 0.06; in that of A15U C32G U41C A45U U48A A65C, 0.14.
In the case of A15U U48C A57G it was 0.89.
In the case of A15U U51G U54C it was 0.63.
For the variant A15G U74A A77G, the self-cleavage is 1.23.
In the case of G16A A28G U31C C37G A47G U78C it was 0.11; in that of G16U G30A U41A, 0.15; in that of A15U C38A A47G A57G U72C, 0.15.
In the case of A15G U41C A47U U66A U67C U76C it was 0.03.
As to A15U C50G U54A G70A, the self-cleavage came out at 0.12.
